# Source: ChEMBL document CHEMBL1961873, “Compounds: GSK PKIS; Assays: Nanosyn kinase panel” (2012)
# For some of these results: This list holds what a sample rich in strong results left over. The list shows a part of the results, in another mix than the full data.
# Assays:
# [1] = target: Glycogen synthase kinase-3 beta (Homo sapiens) (UniProt P49841); conditions: at 1 µM;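 further: reported values are mean percent inhibition of GSK3B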
# [2] = target: Homeodomain-interacting protein kinase 1 (Homo sapiens) (UniProt Q86Z02); conditions: at 0.1 µM
# [3] = target: Homeodomain-interacting protein kinase 1 (Homo sapiens) (UniProt Q86Z02); conditions: at 1 µM
# [4] = target: T1, Homeodomain-interacting protein kinase 4 (Homo sapiens) (UniProt Q8NE63); conditions: at 0.1 µM
# T1 sequence (whole entry): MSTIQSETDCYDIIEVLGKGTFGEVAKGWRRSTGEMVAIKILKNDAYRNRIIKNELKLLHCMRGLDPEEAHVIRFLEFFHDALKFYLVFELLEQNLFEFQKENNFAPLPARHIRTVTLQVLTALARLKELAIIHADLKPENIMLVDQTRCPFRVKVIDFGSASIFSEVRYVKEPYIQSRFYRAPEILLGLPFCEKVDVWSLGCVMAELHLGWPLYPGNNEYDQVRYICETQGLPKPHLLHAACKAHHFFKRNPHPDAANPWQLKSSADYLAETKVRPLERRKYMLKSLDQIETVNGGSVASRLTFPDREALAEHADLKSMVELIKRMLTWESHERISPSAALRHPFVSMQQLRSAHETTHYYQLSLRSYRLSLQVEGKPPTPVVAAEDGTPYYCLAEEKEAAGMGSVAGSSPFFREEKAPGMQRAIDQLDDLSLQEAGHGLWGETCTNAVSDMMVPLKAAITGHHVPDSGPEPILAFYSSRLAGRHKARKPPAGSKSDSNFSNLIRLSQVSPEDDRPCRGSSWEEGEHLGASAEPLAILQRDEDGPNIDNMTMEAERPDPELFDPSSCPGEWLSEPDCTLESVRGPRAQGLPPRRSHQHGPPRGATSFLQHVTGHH
# [5] = target: T1, Homeodomain-interacting protein kinase 4 (Homo sapiens); conditions: at 1 µM
# [6] = target: Mitogen-activated protein kinase 9 (Homo sapiens) (UniProt P45984); conditions: at 0.1 µM
# [7] = target: Mitogen-activated protein kinase 9 (Homo sapiens) (UniProt P45984); conditions: at 1 µM
# [8] = target: Mitogen-activated protein kinase 1 (Homo sapiens) (UniProt P28482); conditions: at 0.1 µM
# [9] = target: Mitogen-activated protein kinase 1 (Homo sapiens) (UniProt P28482); conditions: at 1 µM
# [10] = target: Mitogen-activated protein kinase 3 (Homo sapiens) (UniProt P27361); conditions: at 0.1 µM;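 further: each value is a mean inhibition figure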
# UniProt P27361, sequence (P27361 whole entry): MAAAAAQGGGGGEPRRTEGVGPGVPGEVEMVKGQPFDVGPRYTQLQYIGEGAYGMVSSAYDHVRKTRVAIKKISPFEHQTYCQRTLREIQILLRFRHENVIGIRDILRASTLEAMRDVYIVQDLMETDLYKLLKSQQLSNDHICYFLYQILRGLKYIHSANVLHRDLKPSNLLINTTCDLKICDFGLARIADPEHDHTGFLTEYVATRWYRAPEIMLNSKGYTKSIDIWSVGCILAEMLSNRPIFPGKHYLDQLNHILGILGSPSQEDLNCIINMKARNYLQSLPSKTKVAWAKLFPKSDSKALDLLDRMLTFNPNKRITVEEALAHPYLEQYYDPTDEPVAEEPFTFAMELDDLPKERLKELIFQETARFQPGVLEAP
# UniProt P45984, sequence (P45984 whole entry, looked up): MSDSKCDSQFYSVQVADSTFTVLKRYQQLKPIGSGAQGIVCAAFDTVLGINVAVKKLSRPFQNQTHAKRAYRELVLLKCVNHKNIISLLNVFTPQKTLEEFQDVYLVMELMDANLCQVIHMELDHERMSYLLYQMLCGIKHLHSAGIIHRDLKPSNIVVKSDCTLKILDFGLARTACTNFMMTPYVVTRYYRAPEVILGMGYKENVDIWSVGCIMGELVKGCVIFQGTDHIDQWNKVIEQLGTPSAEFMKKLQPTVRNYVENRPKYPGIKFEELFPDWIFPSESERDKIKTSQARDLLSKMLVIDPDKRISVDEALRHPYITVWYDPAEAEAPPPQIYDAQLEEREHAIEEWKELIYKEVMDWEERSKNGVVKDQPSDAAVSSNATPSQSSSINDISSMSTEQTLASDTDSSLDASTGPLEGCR
# UniProt P28482, sequence (P28482 whole entry): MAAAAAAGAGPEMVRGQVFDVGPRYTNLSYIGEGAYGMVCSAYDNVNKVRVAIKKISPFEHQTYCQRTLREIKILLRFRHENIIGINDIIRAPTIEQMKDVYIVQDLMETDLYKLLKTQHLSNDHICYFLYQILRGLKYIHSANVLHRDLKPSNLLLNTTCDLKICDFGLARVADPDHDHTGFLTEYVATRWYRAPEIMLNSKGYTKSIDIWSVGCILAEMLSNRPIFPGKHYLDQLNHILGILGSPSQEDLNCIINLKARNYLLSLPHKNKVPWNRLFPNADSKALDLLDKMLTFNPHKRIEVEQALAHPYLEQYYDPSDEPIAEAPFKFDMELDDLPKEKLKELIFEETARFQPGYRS
# UniProt Q86Z02, sequence (Q86Z02 whole entry, looked up): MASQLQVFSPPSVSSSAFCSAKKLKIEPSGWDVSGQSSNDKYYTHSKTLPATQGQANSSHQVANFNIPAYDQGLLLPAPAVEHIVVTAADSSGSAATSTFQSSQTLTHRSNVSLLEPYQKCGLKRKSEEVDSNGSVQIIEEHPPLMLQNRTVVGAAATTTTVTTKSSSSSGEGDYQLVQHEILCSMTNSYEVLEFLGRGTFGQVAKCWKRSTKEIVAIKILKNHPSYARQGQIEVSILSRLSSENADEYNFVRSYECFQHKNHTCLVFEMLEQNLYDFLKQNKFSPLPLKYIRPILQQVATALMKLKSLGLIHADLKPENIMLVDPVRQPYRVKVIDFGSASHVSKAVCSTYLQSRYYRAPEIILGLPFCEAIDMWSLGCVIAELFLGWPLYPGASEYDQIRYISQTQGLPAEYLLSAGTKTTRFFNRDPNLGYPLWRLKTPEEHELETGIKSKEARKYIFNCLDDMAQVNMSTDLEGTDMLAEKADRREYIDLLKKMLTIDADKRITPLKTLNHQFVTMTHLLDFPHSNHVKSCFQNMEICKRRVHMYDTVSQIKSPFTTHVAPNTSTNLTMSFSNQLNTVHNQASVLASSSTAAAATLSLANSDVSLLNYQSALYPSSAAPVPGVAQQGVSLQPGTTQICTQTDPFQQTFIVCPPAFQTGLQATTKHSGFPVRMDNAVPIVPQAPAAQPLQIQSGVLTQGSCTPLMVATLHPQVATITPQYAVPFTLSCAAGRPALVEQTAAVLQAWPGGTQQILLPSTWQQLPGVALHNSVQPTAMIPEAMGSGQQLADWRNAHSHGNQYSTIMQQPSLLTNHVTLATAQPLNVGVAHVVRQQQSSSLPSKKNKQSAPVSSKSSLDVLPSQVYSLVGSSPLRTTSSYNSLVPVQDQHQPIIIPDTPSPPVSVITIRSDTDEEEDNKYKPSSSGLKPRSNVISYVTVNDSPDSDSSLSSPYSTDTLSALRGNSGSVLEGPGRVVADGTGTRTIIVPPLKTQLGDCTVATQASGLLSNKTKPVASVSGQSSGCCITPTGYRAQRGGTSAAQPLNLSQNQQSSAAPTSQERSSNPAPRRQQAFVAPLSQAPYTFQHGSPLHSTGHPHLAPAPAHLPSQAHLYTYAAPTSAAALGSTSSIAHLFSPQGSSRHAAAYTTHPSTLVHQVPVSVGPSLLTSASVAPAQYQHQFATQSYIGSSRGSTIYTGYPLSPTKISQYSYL
# UniProt P49841, sequence (P49841 whole entry, looked up): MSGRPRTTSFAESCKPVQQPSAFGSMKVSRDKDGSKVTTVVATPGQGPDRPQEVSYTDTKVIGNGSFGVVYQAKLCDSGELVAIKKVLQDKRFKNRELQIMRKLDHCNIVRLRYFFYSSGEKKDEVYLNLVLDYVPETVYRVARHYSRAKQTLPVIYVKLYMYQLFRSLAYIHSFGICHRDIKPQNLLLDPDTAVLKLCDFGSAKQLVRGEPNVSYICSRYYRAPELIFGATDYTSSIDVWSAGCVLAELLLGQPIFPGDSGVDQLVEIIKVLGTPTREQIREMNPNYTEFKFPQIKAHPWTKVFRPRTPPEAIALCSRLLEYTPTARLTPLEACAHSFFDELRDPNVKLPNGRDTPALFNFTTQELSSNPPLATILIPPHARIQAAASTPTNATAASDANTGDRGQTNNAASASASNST
Compound,inhibition [1] [%],inhibition [2] [%],inhibition [3] [%],inhibition [4] [%],inhibition [5] [%],inhibition [6] [%],inhibition [7] [%],inhibition [8] [%],inhibition [9] [%],inhibition [10] [%]
Fc1ccc(-c2ncn(C3CCNCC3)c2-c2ccnc(Oc3cccc(F)c3)n2)cc1,3.91,-0.06,3.58,0.18,5.01,5.15,13.1,6.08,7.34,4.87
Fc1ccc(-c2ncn(C3CCNCC3)c2-c2ccnc(Oc3ccc(Cl)cc3)n2)cc1,1.86,-3.97,-1.71,-0.75,0.62,1.5,6.17,1.85,3.48,0.56
COc1ccccc1C1=C(Nc2ccccc2)C(=O)NC1=O,,0.32,0.24,3.56,9.56,3.16,4.12,3.45,5.04,3.98
O=C1NC(=O)C(c2ccccc2Cl)=C1Nc1cc(Cl)c(O)c(Cl)c1,,3.16,6.06,2.48,6.53,0.6,2.28,5.19,3.9,1.83
O=C1NC(=O)C(c2cccc([N+](=O)[O-])c2)=C1Nc1cc(Cl)c(O)c(Cl)c1,,-2.9,-1.52,-0.03,1.09,1.59,1.1,2.88,4.35,3.14
Cc1cccc(Oc2nccc(-c3c(-c4ccc(F)cc4)ncn3C3CCNCC3)n2)c1C,4.28,-2.37,1.9,-0.2,0.42,3.91,11.8,5.62,7.49,3.56
O=C1NC(=O)C(c2ccccc2)=C1Nc1ccccc1,,2.23,6.04,2.95,5.33,4.39,5.97,6.12,5.98,3.91
NC(=O)CCc1ccccc1Oc1nccc(-c2c(-c3ccc(F)cc3)ncn2C2CCNCC2)n1,-0.49,-4.09,-2.28,-0.69,0.56,-5.14,1.48,-2.29,-2.2,0.76
CC(C)(C)c1ccc(Oc2nccc(-c3c(-c4ccc(F)cc4)ncn3C3CCNCC3)n2)cc1,4.99,-3.61,-3.29,-0.41,0.77,4.4,10.4,6.17,15.8,3.81
O=C(O)c1ccc(Oc2nccc(-c3c(-c4ccc(F)cc4)ncn3C3CCNCC3)n2)cc1,1.41,-0.41,3.85,1.02,2.18,3.63,7.23,6.73,7,3.47
CS(=O)(=O)c1ccc(Oc2nccc(-c3c(-c4ccc(F)cc4)ncn3C3CCNCC3)n2)cc1,2.96,-3.8,-2.68,-0.65,-1.26,4.02,4.41,6.86,5.35,3.8
Fc1ccc(-c2ncn(C3CCNCC3)c2-c2ccnc(Oc3cccc(C(F)(F)F)c3)n2)cc1,2.16,-4.44,-0.28,0.22,0.14,5.18,5.84,8.02,8.71,5.68
COc1ccccc1Oc1nccc(-c2c(-c3ccc(F)cc3)ncn2C2CCNCC2)n1,7.45,-1.71,1.77,-0.33,1.1,5.21,5.77,6.2,6.59,5.94
Fc1ccc(Oc2nccc(-c3c(-c4ccc(F)cc4)ncn3C3CCNCC3)n2)cc1,-1.66,-3.81,-2.21,0.54,2.88,3.21,6.96,5.33,7.56,4.57
